From PubChem BioAssay (NCATS) come the findings set out here.

A word on the AC50: it is the midpoint of the concentration-response curve, whichever way the signal moves.

Several values for one entry are separate records, joined by “and”; a condition that tells them apart may be missing. Equal entries are not always repeated. The list shows a part of the results. Shown are side measurements of this screen, not its main read-out; they come without a call. Words in brackets tell the shape of the fitted curve; partial curves, single points and poor fits give uncertain potencies.

The assay is described as follows: qHTS drug screen for cell cycle checkpoint inhibitors in PARPi-resistant BRCA-mutant ovarian cancer cell lines. (AID 1963452). To be noted: PEO1/OlaR viability, CellTiter-Glo luminescence, 96 h. The gist of the method:
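PEO1, PEO4 and PEO1/OlaR ovarian cancer cells, 600 per well, exposed 96 h at 37C to a dilution series. Viability read by CellTiter-Glo luminescence, normalized to DMSO and empty wells; activity summarized as Z-AUC.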
Background: In qHTS, concentration-response curves come from the screen itself.

[1] abbreviates: measured here: PEO1 parental viability.
Tags tell the direction and shape of the fitted curve.

For the compound `CCN(CC)CCNC(=O)c1c(C)[nH]c(/C=C2/C(=O)Nc3ccc(-c4csc(-c5ccccc5)n4)cc32)c1C`, the half-maximal activity concentration (AC50) is, setting by setting: under setting [1], 24.5 µM [falling, single point]; (measured here: PEO4 viability) 4.36 µM [falling, full curve].

`C1=C/COCc2cc(ccc2OCCN2CCCC2)Nc2nccc(n2)-c2cccc(c2)COC/1`: the half-maximal activity concentration (AC50) by setting is: under setting [1], 5.49 µM [falling, full curve]; (measured here: PEO4 viability) 15.5 µM [falling, partial curve, poor fit].

Consider `CC[C@@]1(O)C(=O)OCc2c1cc1n(c2=O)Cc2c-1nc1cc(F)c(C)c3c1c2[C@@H](N)CC3`, for which the AC50 under setting [1] was 0.0098 µM [falling, full curve] and the half-maximal activity concentration (AC50) (measured here: PEO4 viability) is 0.0309 µM [falling, full curve].

As for `O=C(Nc1ccc2[nH]nc(-c3ccncc3)c2c1)[C@@H]1CCN(CC(=O)N2CCN(c3ccc(-c4ncccn4)cc3)CC2)C1`, the AC50 is 0.195 µM [falling, full curve] under setting [1] and 0.0309 µM [falling, full curve] (measured here: PEO4 viability).

Turning to `C=C1CC[C@@H]2[C@](C)(CO)[C@H](O)CC[C@@]2(C)[C@@H]1C/C=C1/C(=O)OC[C@H]1O`, the AC50 runs as follows: under setting [1], 12.3 µM [falling, partial curve]; (measured here: PEO4 viability) 8.71 µM [falling, partial curve].

As for `Nc1cc(C(F)(F)F)c(-c2nc(N3CCOCC3)nc(N3CCOCC3)n2)cn1`, the concentration at half-maximal activity (AC50) by setting is: under setting [1], 5.49 µM [falling, partial curve]; (measured here: PEO4 viability) 4.36 µM [falling, partial curve].

Turning to `C=CC(=O)N1CC[C@@H](Oc2nc(Nc3ccc(N4CCC(N5CCN(C)CC5)CC4)cc3)c(C(N)=O)nc2CC)C1`, the half-maximal activity concentration (AC50) is 3.01 µM [falling, partial curve] under setting [1] and 3.01 µM [falling, partial curve] (measured here: PEO4 viability).

`C[C@H](Nc1ncnc2nc[nH]c12)c1cc2cccc(Cl)c2c(=O)n1-c1ccccc1`: the concentration at half-maximal activity (AC50) is, setting by setting: under setting [1], 13.8 µM [falling, single point] and 8.71 µM [falling, partial curve, poor fit]; (measured here: PEO4 viability) 15.5 µM [falling, partial curve, poor fit] and 7.76 µM [falling, partial curve, poor fit].

As for `Nc1ccc(/C=C/C(=O)NCc2cc3cc(-c4ccc(C(=O)N5CCC(F)(F)CC5)cc4)cc(-c4ccc(F)cc4)c3o2)cn1`, the AC50 reads like this: under setting [1], 0.49 µM [falling, full curve]; (measured here: PEO4 viability) 0.871 µM [falling, full curve].

In the case of `Cc1c[nH]c2nc(Nc3ccc(N4CCN(C)CC4)c(F)c3)nc(-c3cccc(CC#N)c3)c12`, the concentration at half-maximal activity (AC50) is, setting by setting: under setting [1], 1.74 µM [falling, full curve]; (measured here: PEO4 viability) 3.09 µM [falling, full curve].

Consider `CCCCNc1ncc2c(-c3ccc(F)cc3)nn(CC3CCC(N)CC3)c2n1` (centres undefined), for which the AC50 under setting [1] was 6.01 µM [falling, partial curve] and the AC50 (measured here: PEO4 viability) is 6.01 µM [falling, partial curve, poor fit].

With `Cc1ccc(NC(=O)Nc2cc(C(F)(F)F)ccc2F)cc1Nc1ccc2c(c1)NC(=O)/C2=C\c1ccc[nH]1`, the AC50 runs as follows: under setting [1], 27.5 µM [falling, single point]; (measured here: PEO4 viability) 13.8 µM [falling, partial curve].

With `COc1ccc(CNC(=O)Nc2ncc([N+](=O)[O-])s2)cc1`, the AC50 is, setting by setting: under setting [1], 15.5 µM [falling, single point]; (measured here: PEO4 viability) 19.5 µM [falling, single point].

On to `CN(C)CCNC(=O)COc1c2cccc1Cc1cccc(c1OCC(=O)NCCN(C)C)Cc1cccc(c1OCC(=O)NCCN(C)C)Cc1cccc(c1OCC(=O)NCCN(C)C)C2`, for which the AC50 under setting [1] is 0.356 µM [falling, full curve] and the half-maximal activity concentration (AC50) (measured here: PEO4 viability) was 0.356 µM [falling, full curve].

As for `C=CC(=O)N1CCC[C@H](n2c(=O)n(-c3ccc(Oc4ccccc4)cc3)c3c(N)ncnc32)C1`, the AC50 reads like this: under setting [1], 13.8 µM [falling, partial curve, poor fit]; (measured here: PEO4 viability) 19.5 µM [falling, partial curve, poor fit].

With `Cc1cc(I)ccc1Nc1c(C(=O)NOCC2CC2)cc(F)c(F)c1F`, the AC50 by setting is: under setting [1], 6.92 µM [falling, partial curve]; (measured here: PEO4 viability) 12.3 µM [falling, partial curve].

For the compound `C=CC(=O)N[C@H]1CN(c2nc(Nc3cn(C)nc3OC)c3ncn(C)c3n2)C[C@@H]1F`, the AC50 under setting [1] was 15.5 µM [falling, partial curve] and the half-maximal activity concentration (AC50) (measured here: PEO4 viability) is 19.5 µM [falling, partial curve].

With `Cc1ccc(C(=O)Nc2ccc(Oc3cc4cnn(C)c4cc3-c3cn[nH]c3)c(F)c2)c(=O)n1-c1ccc(F)cc1`, the AC50 under setting [1] is 5.49 µM [falling, partial curve] and the AC50 (measured here: PEO4 viability) is 2.75 µM [falling, full curve].

Turning to `O=C(c1ccc(/C=C/c2n[nH]c3ccccc23)cc1)N1CCNCC1`, the AC50 is 0.0616 µM [falling, full curve, poor fit] under setting [1] and 15.5 µM [falling, partial curve, poor fit] (measured here: PEO4 viability).

Turning to `Cc1cc(OCCCc2c3n(c4c(-c5c(C)nn(C)c5C)c(Cl)ccc24)[C@H](C)CN(c2cn(C)c4ccc(C(=O)O)cc24)C3=O)cc(C)c1Cl`, the AC50 under setting [1] is 13.8 µM [falling, partial curve] and the half-maximal activity concentration (AC50) (measured here: PEO4 viability) is 11 µM [falling, partial curve].

As to `COc1cc(N2CCN(C(C)=O)CC2)ccc1Nc1ncc(Cl)c(Nc2ccc(N3CCN(C(C)=O)CC3)cc2OC)n1`, the AC50 reads like this: under setting [1], 17.4 µM [falling, partial curve, poor fit]; (measured here: PEO4 viability) 13.8 µM [falling, partial curve].

As for `O=C(Nc1ccc(-c2ccnc(Nc3ccc(N4CCOCC4)cc3)n2)cc1)[C@@H]1CCCN1`, the AC50 is 12.3 µM [falling, single point] under setting [1] and 24.5 µM [falling, single point] (measured here: PEO4 viability).

As for `c1ccc(-c2cc(CCC3CCNCC3)c3ccccc3n2)cc1`, the AC50 is 21.9 µM [falling, single point] under setting [1] and 17.4 µM [falling, single point] (measured here: PEO4 viability).

As for `CC(C)(C)C[C@H]1N[C@@H](C(=O)NC2CCC(O)CC2)[C@H](c2cccc(Cl)c2F)[C@@]12C(=O)Nc1cc(Cl)ccc12` (some centres undefined), the half-maximal activity concentration (AC50) was 24.5 µM [falling, single point] under setting [1] and 13.8 µM [falling, single point] (measured here: PEO4 viability).

Consider `COCCN1CCN(Cc2ccc(-c3n[nH]c4c3C(=O)c3c(NC(=O)NN5CCOCC5)cccc3-4)cc2)CC1`, for which the AC50 by setting is: under setting [1], 19.5 µM [falling, partial curve, poor fit]; (measured here: PEO4 viability) 21.9 µM [falling, partial curve, poor fit].

For the compound `COc1cc2c(cc1O)CCN[C@]21CS[C@@H]2c3c(OC(C)=O)c(C)c4c(c3[C@H](COC1=O)N1[C@@H]2[C@H]2c3c(cc(C)c(OC)c3O)C[C@@H]([C@@H]1O)N2C)OCO4`, the concentration at half-maximal activity (AC50) under setting [1] was 0.0089 µM [falling, full curve] and the half-maximal activity concentration (AC50) (measured here: PEO4 viability) was 0.0178 µM [falling, full curve].

`CCOc1cc(C(=O)N2CCC(N3CCN(C)CC3)CC2)ccc1Nc1ncc2c(n1)N(C1CCCC1)c1ccccc1C(=O)N2C`: the concentration at half-maximal activity (AC50) reads like this: under setting [1], 15.5 µM [falling, partial curve]; (measured here: PEO4 viability) 9.77 µM [falling, partial curve].

`O=c1c(-n2ccnn2)c[nH]n1-c1cc(N2CCOCC2)ncn1`: the AC50 was 27.5 µM [falling, single point] under setting [1] and 24.5 µM [falling, single point] (measured here: PEO4 viability).

Regarding `O=C(c1ccc(F)c(F)c1Nc1ccc(I)cc1F)N1CC(O)([C@@H]2CCCCN2)C1`, the AC50 runs as follows: under setting [1], 2.45 µM [falling, partial curve]; (measured here: PEO4 viability) 3.09 µM [falling, partial curve].

As for `Cc1cc(Nc2ncnc3ccc(NC4=NC(C)(C)CO4)cc23)ccc1Oc1ccn2ncnc2c1`, the AC50 under setting [1] is 13.8 µM [falling, partial curve] and the concentration at half-maximal activity (AC50) (measured here: PEO4 viability) was 15.5 µM [falling, single point].

For `CC/C(=C(/c1ccc(O)cc1)c1ccc(OCCNC)cc1)c1ccccc1`, the AC50 was 17.4 µM [falling, single point] under setting [1] and 21.9 µM [falling, partial curve] (measured here: PEO4 viability).

Take `COc1ncc(-c2ccc3c(Nc4cc(Oc5cc(F)cc(F)c5)cc(C(=O)O)c4)c(S(=O)(=O)NC4CC4)cnc3c2)c(OC)n1`: the AC50 is, setting by setting: under setting [1], 2.75 µM [rising, partial curve, poor fit]; (measured here: PEO4 viability) 3.47 µM [rising, full curve, poor fit].

Take `CN(C)C/C=C/C(=O)Nc1ccc(C(=O)Nc2cccc(Nc3ncc(Cl)c(-c4c[nH]c5ccccc45)n3)c2)cc1`: the AC50 runs as follows: under setting [1], 0.0245 µM [falling, full curve]; (measured here: PEO4 viability) 0.0436 µM [falling, full curve].

Take `COc1ccc(COc2ccc(Cc3cnc(N)nc3N)cc2OC)cc1`: the AC50 by setting is: under setting [1], 15.5 µM [falling, single point]; (measured here: PEO4 viability) 12.3 µM [falling, single point].

On to `N#Cc1cccnc1N1CCN(C(=O)c2cccc(Cc3n[nH]c(=O)c4ccccc34)c2)CC1`, for which the AC50 runs as follows: under setting [1], 0.245 µM [falling, full curve]; (measured here: PEO4 viability) 1.95 µM [falling, full curve, poor fit].

As to `COc1cc2c3c(n(CCCNCCO)c(=O)c2cc1OC)-c1cc2c(cc1C3=O)OCO2`, the half-maximal activity concentration (AC50) was 0.0069 µM [falling, full curve] under setting [1] and 0.0389 µM [falling, full curve] (measured here: PEO4 viability).

Turning to `Nc1cccc(S(=O)(=O)N2CCCN(S(=O)(=O)c3ccc4c(c3)OCCO4)CC2)c1`, the half-maximal activity concentration (AC50) runs as follows: under setting [1], 27.5 µM [falling, partial curve, poor fit]; (measured here: PEO4 viability) 8.71 µM [falling, partial curve, poor fit].
